# From PubChem BioAssay AID588342 (National Center for Advancing Translational Sciences (NCATS), 2011)
# Hit rate of the full screen: of about 360,000 compounds, about 25,000 (6.9%) were called active. Inconclusive results, whose numbers are uncertain, are shown with a selection of clear calls. Calls come from the whole dose curve; as a rule, active = well fitted inhibition curve with a large enough effect; inconclusive = small, poorly fitted or top-dose-only effect; inactive = flat fitted curve, though single readings scatter. A potency beside an inconclusive call is a rough fit, not a confirmed value.
# Target: Luciferin 4-monooxygenase (Photinus pyralis) (UniProt P08659)
# UniProt P08659, sequence (P08659 whole entry, looked up): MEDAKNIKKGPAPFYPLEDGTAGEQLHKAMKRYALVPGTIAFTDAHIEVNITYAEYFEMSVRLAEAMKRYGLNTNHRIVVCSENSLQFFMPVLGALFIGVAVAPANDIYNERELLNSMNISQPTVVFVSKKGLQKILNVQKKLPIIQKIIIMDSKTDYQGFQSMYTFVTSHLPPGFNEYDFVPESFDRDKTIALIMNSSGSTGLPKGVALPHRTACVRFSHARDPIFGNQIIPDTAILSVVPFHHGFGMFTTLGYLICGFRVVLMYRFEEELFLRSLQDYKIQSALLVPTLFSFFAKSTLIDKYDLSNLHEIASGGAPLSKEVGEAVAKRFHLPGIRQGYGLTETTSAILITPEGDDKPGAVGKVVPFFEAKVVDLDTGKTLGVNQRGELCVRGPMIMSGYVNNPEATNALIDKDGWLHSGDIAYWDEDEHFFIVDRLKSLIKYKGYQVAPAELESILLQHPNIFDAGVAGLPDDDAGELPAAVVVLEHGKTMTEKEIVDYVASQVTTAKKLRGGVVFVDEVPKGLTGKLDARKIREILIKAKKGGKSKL
# Assay: qHTS profiling assay for firefly luciferase inhibitor/activator using purifed enzyme and Km concentrations of substrates (counterscreen for miR-21 project); note: nearly all actives have a fitted effect of over 55% in size;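 for activity change, negative = inhibition: plate controls were vehicle for no effect and reference inhibitor for full effect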
# Details: purified FLuc, luminescence inhibition; series mostly up to 57.5 µM; activity change, negative = inhibition: at the top concentration
# In short: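 Purified P. pyralis luciferase (10nM final) with 10uM D-luciferin and 10uM ATP (Km levels) in 50mM Tris acetate pH 7.5, 10mM Mg acetate, 0.01% Tween-20, 0.05% BSA; qHTS 6-point titration, ~60 µM downward; luminescence read.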
# Potency is the fitted concentration of half-maximal effect; tags give direction and shape of the fitted curve.
SMILES,Potency,"activity change, negative = inhibition"
C=CCN1C(=O)S/C(=C/c2ccsc2)C1=O,active: 19 µM,–
CC(=O)Nc1ccc(/C=C/c2nc(-c3ccccc3O)n[nH]2)cc1,"inconclusive: 7.57 µM [inhibitor, full curve]",–
CCCCC(NC(=O)Cc1c(C)c2cc3c4c(oc3cc2oc1=O)CCCC4)C(=O)O (centres undefined),active: 19 µM,–
CC1CCCCC1NC(=S)Nc1ccc(Cl)cc1Cl (centres undefined),"inconclusive: 26.9 µM [inhibitor, partial curve, poor fit]",–
Cc1ccccc1-n1nc(SCC(=O)O)sc1=S,"inconclusive: 37.9 µM [inhibitor, partial curve, poor fit]",–
COC(=O)c1ccc(CSc2nnc(C)s2)cc1,"inconclusive: 15.1 µM [inhibitor, partial curve, poor fit]",–
CSc1ncc(C(=O)Nc2ccccc2F)c(-c2ccccc2)n1,–,inactive: -2.81%
COc1cccc(/C=C2/C(=O)NN(c3ccc(Br)cc3)C2=O)c1O,active: 1.9 µM,–
COC(=O)c1ccc(OC)c(CN2CCCN(Cc3cc(C)ccc3C)S2(=O)=O)c1,–,inactive: 0.833%
C/C(Cn1cnc([N+](=O)[O-])n1)=N\NC(=O)c1ccc(O)cc1O,"inconclusive: 30.1 µM [inhibitor, single point]",–
CC(=O)N1CCCc2cc(S(=O)(=O)N3CCC(C(=O)NC4CCCCC4)CC3)ccc21,–,inactive: -3.81%
Cc1[nH]c2ccccc2c1/C=N/NC(=O)c1cc(C(C)C)[nH]n1,"inconclusive: 19 µM [inhibitor, partial curve]",–
O=C(Nc1cccc(Cl)c1)Nc1sccc1-c1nc2ccccc2s1,active: 13.5 µM,–
COc1ccc(-c2cc(-c3nnc(COC(=O)CC4CCCC4)o3)c3ccccc3n2)cc1OC,"inconclusive: 30.1 µM [inhibitor, partial curve, poor fit]",–
O=C(CN1C(=O)c2ccccc2C1=O)NNC1=NS(=O)(=O)c2ccccc21,"inconclusive: 10.7 µM [inhibitor, partial curve, poor fit]",–
NNC(=O)c1ccc(O)cc1O,"inconclusive: 13.5 µM [inhibitor, single point]",–
Cc1nn(C)cc1CNC(=O)Nc1cccc(Cl)c1,"inconclusive: 19 µM [inhibitor, partial curve, poor fit]",–
CCc1ccc(-c2csc(NC(=O)C3CC(=O)N(c4ccc5c(c4)OCCO5)C3)n2)cc1 (centres undefined),"inconclusive: 37.9 µM [inhibitor, partial curve, poor fit]",–
CCOC(=O)c1sc(NC(=O)CSc2nncn2C)nc1C,"inconclusive: 37.9 µM [inhibitor, partial curve, poor fit]",–
